The list shows a part of the results.
T1: UNK ZnF1-3 (human, UniProt Q9C0B0 31-174)
T1 sequence: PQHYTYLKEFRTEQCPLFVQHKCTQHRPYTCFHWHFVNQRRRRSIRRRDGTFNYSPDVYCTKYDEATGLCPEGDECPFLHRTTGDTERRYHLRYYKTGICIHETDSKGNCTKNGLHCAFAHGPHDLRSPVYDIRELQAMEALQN

B1: 4173556_4173676_2911_3pUTR_ENSG00000132388_ENST00000396981|human|control|control (ssRNA)
RNA: GGGAGUUCUACAGUCCGACGAUCCACCUCAACAGAUUGCUAGCAGAAUUAUAGCAAUAGGAGAGCAAAAUUUGAACUCCGUUUUGCCACAAGCAACCACCAUGUGAACAAGUUCUGAUUUUAAAAGGGAGGGAUCCCAUCUCUCAACAGAGGAUUGAGCAUCA
B2: chr7:75932113:75932114:+_ENSG00000106211_ENST00000248553|hu_hu|hu_hu_hu_mus_False|48_88 (ssRNA)
RNA: GGGAGUUCUACAGUCCGACGAUCCUGCGACCACUCAUCGGGCAACCGGGGCAGCCCGAAAGCUUGAUCGAAGAGGCGGCUGUGUGCGUACCAGUCGUCCCGGAAUGGUUCCCAGCUCGGGCUCCGCAGCAGCGAGAAGGGCACCAACAGAGGAUUGAGCAUCA
B3: chr16:45382771:45382772:-_ENSMUSG00000022661_ENSMUST00000163230|mus_mus|mus_mus_mus_hu_True|58_78 (ssRNA)
RNA: GGGAGUUCUACAGUCCGACGAUCCUGGGUCAUGUUAUAAGACAAAUGGACAGGGAGAGCAUGCUUUUCAAAAAAUGUGAACUACUCUCUAAGACUAACAAUAUUUAUCUAGCUAUAAAAAUAAGUUAAAUGAAUAAGUUAAGACAACAGAGGAUUGAGCAUCA
B4: 38089932_38090052_906_5pUTR_ENSMUSG00000022812_ENSMUST00000023507|mouse|control|control (ssRNA)
RNA: GGGAGUUCUACAGUCCGACGAUCCGGGUGAACCGGAGGGCAGCGCAGUCGCGAGUCAGCGGCGGGCGGUGGCGGCGGCUCCUCUCCUCAUUGCGCCAGGAGCAGCUGCAGGCGGUGGCUGGAUCCAGCGGCCAUGGCGGCAGCCAACAGAGGAUUGAGCAUCA
B5: chr1:35656432:35656433:-_ENSG00000116560_ENST00000357214|perfect_dup|motif|central (ssRNA)
RNA: GGGAGUUCUACAGUCCGACGAUCAGAUCUUCCACGAUCAUCCACUAUUACAACAGCCCUUUCAAUAGGACCAAAUUGGCGGAAGGCUUCUUCCAACAGUUCAUUGGAAACAUAAGGUGAAAGAUUACGAACAGAAAGGGCAGCCAACAGAGGAUUGAGCAUCA
B6: chr5:67718940:67718941:+_ENSMUSG00000029221_ENSMUST00000113676|mus_mus|motif|central (ssRNA)
RNA: GGGAGUUCUACAGUCCGACGAUCAGUAAAGGACUCGGUGUCAUCGUGGGGACUUCGCCGCCUGAUUUUUCGAAGUUGUUCGGAAUCACUGGACUUAAGGCAGAACUCGUUUAUUGCUCUCACUCCAGUGAUGAAAUUAUUCUUCAACAGAGGAUUGAGCAUCA
B7: chr14:88400820:88400821:-_ENSG00000054983_ENST00000261304|hu_mus|FALSE|FALSE (ssRNA)
RNA: GGGAGUUCUACAGUCCGACGAUCGAGCUACCUUGGUAUUAGUGCGAAGGCUGCAAGGGCAGAACCCGCCCAAGCACCCCUGAAGGAUGGGACUGAACAACCGUGGGCCUUGAGAGCUACCACAGAGAGUGUCAAAGACUACCUCAACAGAGGAUUGAGCAUCA
B8: 151558971_151561332_1860_3pUTR_ENSMUSG00000034021_ENSMUST00000016569|mouse|control|control (ssRNA)
RNA: GGGAGUUCUACAGUCCGACGAUCCUGUUUCCGUAUUUUCUCAUCAUCUUCCAACACUUGUGUGAACUUCUUCAUGAAGUCUUGGGCCUUACCAGGAUCUGGCAAAUUUCUUGUGAUAACCAUCACUUUAGAAAAUAUGGCCUUCAACAGAGGAUUGAGCAUCA
B9: chr1:60038506:60038507:+_ENSMUSG00000041040_ENSMUST00000036540|mus_mus|FALSE|FALSE (ssRNA)
RNA: GGGAGUUCUACAGUCCGACGAUCAGCUUCCUCAAUGGGUUCUGGUGGUGCAUGGAGGGAGGCGGAUGGCAGGACUGUACUGGUUCCUCGAGAUACCCGCUCUUGCUCUGUGUUUGUAGACAGGGAGGCCAUAGAGAUGGGCUGCAACAGAGGAUUGAGCAUCA
B10: chr19:30213842:30213843:-_ENSMUSG00000024827_ENSMUST00000025778|mus_mus|FALSE|FALSE (ssRNA)
RNA: GGGAGUUCUACAGUCCGACGAUCAAUGUGCUUCAGCCCCUGGGAUCCAUGGUAAAUGGCGAACAUGGCAGCCAUGUUGGCUAAAAGGGCCUGAGCCGUGCAGAUGUUGCUGGUGGCUUUGUCUCUCCGGAUGUGUUGUUCUCUCAACAGAGGAUUGAGCAUCA
B11: chr17:24832259:24832260:-_ENSMUSG00000040888_ENSMUST00000046839|mus_mus|FALSE|FALSE (ssRNA)
RNA: GGGAGUUCUACAGUCCGACGAUCCCUUAUGUCUUCCGCACAUUCCUCGCAGGGGUAAAACUUGGAAAAUAUAUGUAUGAACUGGGCCAUAUCCUGUUGUUGUUCUGGCGUGGGCCUGUCCGGGUAAUAGGCGGCCAGCGUAUGCAACAGAGGAUUGAGCAUCA
B12: chr10:44834900:44834901:+_ENSMUSG00000019849_ENSMUST00000099858|mus_mus|FALSE|FALSE (ssRNA)
RNA: GGGAGUUCUACAGUCCGACGAUCGAAUGUGAACACUGUGCCCUCGUUGGUUACGUAGUCGUAUUCUCCUUCAAAGUUGUCUAUCAGUUUUACCCACUUCAGGAUUCCGGUGAUACCAUUGGGUUCUUGCUGGAGGUCACAGUACAACAGAGGAUUGAGCAUCA
B13: 108160877_108160997_3304_3pUTR_ENSMUSG00000068747_ENSMUST00000102632|mouse|control|control (ssRNA)
RNA: GGGAGUUCUACAGUCCGACGAUCAGCCACUGGCACAGCACAAAGUACAGCCUGAAAGAGCUCAGAAGCAGCCAGUUUUGUCUUUAAUAGGUGUCAGAGCUAGUCAAUUCUCUGCCUCCCUCUUGCCACAAGUUAAAAAUAUUGCAACAGAGGAUUGAGCAUCA
B14: chr3:52290438:52290439:-_ENSG00000164091_ENST00000296490|hu_hu|FALSE|FALSE (ssRNA)
RNA: GGGAGUUCUACAGUCCGACGAUCUAUAUGCGUAUCUGUAUGCACACAGAUGUAUUUAAAUGAAGGUGCAUACACUGUGCUAAAAUACAAACAACAGAAAUCAAAGGUCAUAUAUAAAAACGCUAAAUAUGACAUAUAACACAGCAACAGAGGAUUGAGCAUCA
B15: chr19:8913615:8913616:-_ENSMUSG00000071658_ENSMUST00000096259|mus_hu|mus_mus_mus_hu_False|38_108 (ssRNA)
RNA: GGGAGUUCUACAGUCCGACGAUCAGGGGGGCACCAACUUCUGCCUGAAAUGGGUGCCCCACCCAGUAGGGAGUUGCAGCUGAAAGUAUCUGAUGCACUGACAGUUACUAUACGAAAGGAGGCCCCUGGGGAGGGCCAGGCCAGCAACAGAGGAUUGAGCAUCA
B16: chr12:42180722:42180723:-_ENSMUSG00000036295_ENSMUST00000043884|mus_hu|mus_mus_mus_hu_True|68_88 (ssRNA)
RNA: GGGAGUUCUACAGUCCGACGAUCCUGUAGGAGAAGAAUCUGUGUGUCGGCAGGCAAUCUGGCUGGGAAGUUUAAAAGACCUAAAUCAUUACAAUCCACUGUAGAUGCUUCCAUAUAAAUGGAUCUGGGUGUAAACCAAGGCCUCAACAGAGGAUUGAGCAUCA
B17: chrX:153712385:153712386:-_ENSG00000102178_ENST00000369660|hu_hu|motif|central (ssRNA)
RNA: GGGAGUUCUACAGUCCGACGAUCUUAAACAAAUUGCCUUUAUUGUUAAACCAAUGAUUGGAUAUCAGAAACAGCCGGGCGGAUAUAGCUCCUUUUGGAUAAAAGUAGAAGCCUCACAUUCACCUUUAAUGUUAUUUCACUUUUCAACAGAGGAUUGAGCAUCA
B18: chr2:9725471:9725472:-_ENSG00000134308_ENST00000238081|hu_mus|motif|central (ssRNA)
RNA: GGGAGUUCUACAGUCCGACGAUCUGAAAAGCAGACUGAGACAGUUUCCAAUUCCACACAAGUAAAUGUUAAGUUGUCUCGGAGCAACUGCAUGAUGAGGGUGCUGUCUUUGUAGGAGUCUUCGUUCAGUGUAUCAAGCUCUGCCAACAGAGGAUUGAGCAUCA
B19: chr16:94664741:94664742:+_ENSMUSG00000040785_ENSMUST00000117648|mus_hu|mus_mus_mus_hu_False|28_68 (ssRNA)
RNA: GGGAGUUCUACAGUCCGACGAUCUGGUACUGAUCUUGGUAGCUGAUAUUCAGGAGAAAGGCUGGCCAAAGGUGUGUAUAUGCUGGUGUACUGGGGCAAACCUGGUACCAUGUUAAUGUAUGCUGGCGGUGUCUGGGUGAUAUCCAACAGAGGAUUGAGCAUCA
B20: 60969276_60970736_1488_3pUTR_ENSMUSG00000042506_ENSMUST00000041683|mouse|control|control (ssRNA)
RNA: GGGAGUUCUACAGUCCGACGAUCCAUUGUUGAGACUGUCCAGGGGCUGCUGGUAUUGCCCAUUCAUCCUGCUCUCUUUGCUGGAGGCCAUGAAGGGCGUCAUGUCCAGUUCCAGGGGAAAAGACACAUAUGUGGUGAUCUUCCCAACAGAGGAUUGAGCAUCA
B21: 98787355_98787475_131_3pUTR_ENSG00000104341_ENST00000445593|human|control|control (ssRNA)
RNA: GGGAGUUCUACAGUCCGACGAUCCCGGCCCGCUUCUACUUCUAUCUUGCAGGUAAUCGAUACAGCUCCUAUCACUCUUAUCUUGCACGAGAGGAAGGAAAACUGCGCGGUGCUAUUCCAGUCAAUUGCAGUACUUUGAACCACCAACAGAGGAUUGAGCAUCA
B22: chr16:56974071:56974072:+_ENSG00000051108_ENST00000439977|hu_mus|FALSE|FALSE (ssRNA)
RNA: GGGAGUUCUACAGUCCGACGAUCCAUGAGAAAUCUGCUCAGCGAGGAGUAGAAGUAAAGGAUGCUGAGGAAAACAGAAAACGUCGCUGCGGAAUAGGUCCAAUCCAACCAGUCUCGGUUUAUCUCAUCAUCUUCCUCCACCAGCAACAGAGGAUUGAGCAUCA

What follows are binders tested against T1, UNK ZnF1-3 (assay: nsRBNS (natural sequence RNA bind-n-seq); RBNS binding buffer (assumed for nsRBNS): 25 mM Tris pH 7.5, 150 mM KCl, 3 mM MgCl2, 0.01% Triton X-100, 500 ug/ml BSA, 20 U/ml SUPERase-In, 4 C; UNK is unkempt and MSI1 is Musashi-1; names of the RNAs are library labels; protein concentration not given here; high values mean tight binding).
Work on B1 yielded a binding signal of 1.8 enrichment R. With B2 the binding signal was 0.728 enrichment R. With B3 the binding signal was 2.67 enrichment R. B4 was tested, and the binding signal was 0.831 enrichment R. With B5 the binding signal was 1.13 enrichment R. In the case of B6, the binding signal is reported as 0.516 enrichment R. B7 was tested, and the binding signal was 1.62 enrichment R. B8 was tested, and the binding signal was 0.635 enrichment R. In the case of B9, the binding signal is reported as 1.47 enrichment R. Binder B10 has a binding signal of 0.84 enrichment R. B11 was tested, and the binding signal was 0.918 enrichment R. B12 showed a binding signal of 0.566 enrichment R. With B13 the binding signal was 1.99 enrichment R. B14 showed a binding signal of 0.722 enrichment R. For B15, the binding signal was 0.832 enrichment R. B16 showed a binding signal of 1.22 enrichment R. Work on B17 yielded a binding signal of 0.694 enrichment R. For B18, the binding signal was 1.09 enrichment R. Work on B19 yielded a binding signal of 1.02 enrichment R. In the case of B20, the binding signal is reported as 0.764 enrichment R. For B21, the binding signal was 0.722 enrichment R. B22 gave a binding signal of 0.921 enrichment R.

— PMC12136788
